According to PubChem BioAssay AID504832 (National Center for Advancing Translational Sciences (NCATS), 2011):
In all, about 310,000 compounds went through this assay and about 18,000 (5.8%) were called active. This list was built around the results that the source calls inconclusive (neither active nor inactive); the mix of calls is not that of the screen. The call rests on the fitted dose curve; in most records, active means well fitted inhibition curve with a large enough effect; inconclusive means small, poorly fitted or top-dose-only effect, or another doubt; inactive means no such curve, though single readings can be large or run the other way. No potency is given beside an inconclusive call; the fits are too rough.

Experiment: Primary qHTS for delayed death inhibitors of the malarial parasite plastid, 48 hour incubation
Conditions: P. falciparum luciferase growth in erythrocytes; series mostly up to 28.7 µM; activity change, negative = inhibition: at the top concentration
Procedure, shortened: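 First compound was added to culture medium, then infected red cells at 0.1% parasitemia and 2% hematocrit (final). After incubation at 37 C under 5% CO2, luciferase detection reagent was dispensed and light output recorded.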
On the % scale 0 is the no-effect control and ±100 the full control effect; potency means the concentration at half of the fitted maximal effect; tags describe the fitted curve by direction and shape.

Row | SMILES | Potency | activity change, negative = inhibition
1 | COc1cc(SC#N)ccc1N=Cc1c(C)[nH]n(-c2ccc(C)c(C)c2)c1=O | active: 5.22 µM | 
2 | CCCC(NS(=O)(=O)c1ccc(OC)cc1)C(=O)O (configuration not stated) | inconclusive [inhibitor, single point] | 
3 | O=[As](O)(O)c1ccc(N=Nc2ccc(O)cc2)cc1 | inconclusive [inhibitor, full curve] | 
4 | CCOC(=O)N1CCN(Cc2nc3c(c(=O)[nH]c(=O)n3C)n2Cc2ccccc2C)CC1 | inconclusive [inhibitor, single point] | 
5 | CCOC(=O)C1(CC2CCCCO2)CCN(Cc2cccnc2)CC1 (configuration not stated) | inconclusive [inhibitor, partial curve, poor fit] | 
6 | COc1cc2c(cc1OC)C(c1cc3ccccc3oc1=O)=NC(C)(C)C2 | active: 8.28 µM | 
7 | O=C(N/N=C/c1ccc2c(c1)OCO2)c1ccc(COc2cccc3cccnc23)cc1 | inconclusive [inhibitor, partial curve, poor fit] | 
8 | Clc1cccc(CNc2nc(-c3cccnc3)nc3ccccc23)c1 | inconclusive [inhibitor, partial curve] | 
9 | Cc1ccc(Cn2c(CN3CCN(C(=O)c4ccco4)CC3)nc3c2c(=O)n(C)c(=O)n3C)cc1 | active: 2.08 µM | 
10 | COc1ccccc1Cc1nc(-c2cccnc2)no1 | inconclusive [inhibitor, full curve] | 
11 | COc1ccc(C(C(=O)NC2CCCC2)N(C(=O)c2ccco2)c2cc3c(cc2C(C)=O)OCO3)cc1OC (configuration not stated) | inconclusive [inhibitor, partial curve, poor fit] | 
12 | COc1cccc(-c2c(C(=O)N/N=C/c3ccc(C)o3)nnn2-c2nonc2N)c1 | inconclusive [inhibitor, single point] | 
13 | CN(C)c1ccc(/C=C2\C(=O)NC(=O)N(Cc3ccc(F)cc3)C2=O)cc1 |  | inactive: 3.12%
14 | CCN(CC)S(=O)(=O)c1ccc(N=Nc2c(C)[nH]n(C(N)=S)c2=O)cc1 |  | inactive: -20.7%
15 | Cc1cccc(NC(=S)N(CCN2CCOCC2)Cc2cc3cc4c(cc3[nH]c2=O)OCCO4)c1 | inconclusive [inhibitor, single point] | 
16 | CCOC(=O)N1CCN(Cc2nc3c(c(=O)n(C)c(=O)n3C)n2Cc2ccccc2)CC1 | inconclusive [inhibitor, partial curve] | 
17 | O=C(Nc1ccon1)c1sc2cc(Cl)ccc2c1Cl | inconclusive [inhibitor, partial curve] | 
18 | COc1ccc(-c2cc(C(F)(F)F)nc(N3CCCCC3)n2)cc1OC | active: 3.29 µM | 
19 | COc1ccc(-n2c(=O)c(CCC(=O)NCCc3ccccc3F)nc3ccccc32)cc1 | inconclusive [inhibitor, single point] | 
20 | CCC(C)n1cnc2c(c1=O)c1nc3ccccc3nc1n2Cc1ccccc1OC (configuration not stated) | inconclusive [inhibitor, full curve] | 
21 | Cc1cc(Cl)c(OCCCn2ccnc2)c(Br)c1 | inconclusive [inhibitor, single point] | 
22 | CN(Cc1cccs1)C(=O)c1ccc(S(=O)(=O)NCc2ccco2)cc1 |  | inactive: -2.36%
23 | CC(C)(C)OC(=O)NCCCC[C@H](NC(=O)c1nc[nH]c1C(=O)NCC(=O)OCc1ccccc1)C(=O)OC(C)(C)C | inconclusive [inhibitor, partial curve, poor fit] | 

Row | SMILES | Potency | activity change, negative = inhibition
24 | O=C(NCCc1cccs1)C12CN(Cc3ccccc3)CC1C(c1cccc([N+](=O)[O-])c1)=NO2 (configuration not stated) | active: 8.28 µM | 
25 | Cc1onc(-c2ccccc2Cl)c1C(=O)N/N=C(\N)COc1ccc(Cl)cc1 | inconclusive [inhibitor, single point] | 
26 | Cc1ccc(OC(C)C(=O)Nc2ccncc2)cc1C (configuration not stated) | inconclusive [inhibitor, partial curve, poor fit] | 
27 | Cc1cccn2c(=O)c3cc(C(=O)NC4CCCC4)c(=N)n(Cc4ccc(F)cc4)c3nc12 | inconclusive [inhibitor, full curve] | 
28 | O=C(CCNS(=O)(=O)c1ccccc1C(F)(F)F)NCC(c1ccco1)N1CCCCC1 (configuration not stated) | inconclusive [inhibitor, partial curve] | 
29 | O=C(Nc1ccc(Br)cc1)c1cc(-c2ccc3c(c2)OCO3)on1 |  | inactive: 37.8%
30 | CCOc1ccccc1-n1nnnc1SCC(=O)Nc1cc2oc3ccccc3c2cc1OC | inconclusive [inhibitor, partial curve, poor fit] | 
31 | Cc1ccccc1N=Nc1c(N)n[nH]c1N |  | inactive: 7.08%
32 | CCOc1ccccc1NC(=O)Nc1ccc(Br)cc1C | inconclusive [inhibitor, partial curve, poor fit] | 
33 | O=C(Cn1c(=O)oc2cc(S(=O)(=O)N3CCCC3)ccc21)Nc1ccccc1Br | inconclusive [inhibitor, partial curve, poor fit] | 
34 | COc1ccc(-c2nn(-c3ccccc3)cc2/C=N/n2cnnc2)cc1OC | inconclusive [inhibitor, single point] | 
35 | O=C(Cc1ccccc1[N+](=O)[O-])Nc1cccc(S(=O)(=O)NC2=NCCCCC2)c1 | inconclusive [inhibitor, single point] | 
36 | COc1ccc(Nc2nc(-c3ccccc3)nc3ccccc23)cc1S(=O)(=O)N1CCOCC1 | inconclusive [inhibitor, full curve] | 
37 | CCCCCc1cc(=O)oc2c(C(CCN(CC)CC)c3ccc(OC)cc3)c(OC)cc(OC)c12 (configuration not stated) | active: 3.29 µM | 
38 | Cc1c(C(=O)N(Cc2ccc(Cl)cc2)C2CCS(=O)(=O)C2)oc2ccccc12 (configuration not stated) | active: 13.1 µM | 
39 | Cc1ccc(NC(=O)CCc2nnc3ccc(N4CCC(C)CC4)nn23)nc1 | inconclusive [inhibitor, partial curve] | 
40 | CC(=O)Nc1ccc(NC(=O)C(C)OC(=O)CSCc2cccc(Cl)c2)cc1 (configuration not stated) |  | inactive: 25.4%
41 | O=C(Nc1cccc(C(=O)N2CCN(c3ccc(F)cc3)CC2)c1)c1ccccc1 | inconclusive [inhibitor, single point] | 
42 | CCOc1ccc(/C=N/N2C(=O)C(CC(=O)Nc3ccc(F)cc3F)SC2=NC)cc1OC (configuration not stated) | active: 11.7 µM | 
43 | C=C(C)CC(c1ccccc1)N(C(C)=O)c1ccco1 (configuration not stated) |  | inactive: -13.5%
44 | COc1ccc(C)cc1NC(=O)CSc1nnc(-c2cc3cccc(OC)c3o2)n1N | inconclusive [inhibitor, partial curve, poor fit] | 
45 | O=C(NCc1ccccc1)C(c1ccccc1)N(Cc1cccs1)C(=O)c1cnccn1 (configuration not stated) |  | inactive: -22.3%
46 | CC(C)CCNC(=O)C1CCN(S(=O)(=O)c2ccc3c(c2)CC(C)N3C(=O)C2CCC2)CC1 (configuration not stated) | active: 14.7 µM | 

Row | SMILES | Potency | activity change, negative = inhibition
47 | CC(Nc1ccc(F)cc1)=[N+](C)CCNS(=O)(=O)c1ccc(Cl)cc1 |  | inactive: -27.2%
48 | O=C(CNC(=S)N(Cc1ccc(F)cc1)C1CCCCC1)NCC1CCCO1 (configuration not stated) | inconclusive [inhibitor, partial curve] | 
49 | O=[N+]([O-])c1ccccc1CNc1ccc(F)c(Cl)c1 |  | inactive: 32.4%
50 | COC(=O)N/N=C/c1cn(Cc2ccc(F)cc2)c2ccccc12 | inconclusive [inhibitor, single point] | 
51 | CCCn1c(C2CCCN2c2nc(-c3ccc(C)cc3)cs2)nc2cc(Cl)c(N3CCCCC3)cc21 (configuration not stated) | inconclusive [inhibitor, full curve, poor fit] | 
52 | CCCOc1ccc2c(=O)c(-c3cc(C(=O)OC)oc3C)c(C)oc2c1 | inconclusive [inhibitor, partial curve] | 
53 | O=C(OCCN1CCCCC1)c1ccccc1Cl |  | inactive: 3.35%
54 | COc1cc(N=Cc2c(O)[nH]c3ccccc23)cc(OC)c1OC | inconclusive [inhibitor, partial curve] | 
55 | COc1ccc(OC)c(S(=O)(=O)Nc2ccc(O)c3ccccc23)c1 | active: 1.17 µM | 
56 | CC(=O)c1ccc(NC(=O)c2ccc([N+](=O)[O-])o2)cc1 |  | inactive: -10.6%
57 | O=C(NC1CCCC1)C(c1ccco1)N(C(=O)c1ccco1)c1ccc(F)cc1 (configuration not stated) | inconclusive [inhibitor, full curve, poor fit] | 
58 | O=C1COc2ccc(C(=O)COC(=O)c3cc(S(=O)(=O)N4CCOCC4)ccc3F)cc2N1 | inconclusive [inhibitor, full curve, poor fit] | 
59 | Cc1ccc(NC(=S)N(CCCN(C)C)Cc2cc3cc4c(cc3[nH]c2=O)OCO4)c(C)c1 | active: 9.28 µM | 
60 | CCOC(=O)[C@@H]1[C@H]2COc3ccccc3[C@H]2N2C(=O)N(c3ccc(F)cc3)C(=O)[C@]12C |  | inactive: -14.1%
61 | O=[N+]([O-])c1cc(Cl)cc(/C=N/NC(=S)Nc2cc(S(=O)(=O)N3CCOCC3)ccc2Cl)c1O | inconclusive [inhibitor, full curve, poor fit] | 
62 | CC(Oc1cccc(Cl)c1)C(=O)Nc1nc(-c2ccccn2)cs1 (configuration not stated) | active: 2.62 µM | 
63 | CCOc1c2ccc(C(=O)NC3CCCc4ccccc43)cc2nn1C (configuration not stated) |  | inactive: 25.2%
64 | Cc1ccc(NC2=C(Cl)C(=O)OC2OC(C)C)c(C)c1 (configuration not stated) | inconclusive [inhibitor, partial curve] | 
65 | COc1ccc(CCN2C(=O)c3[nH]nc(-c4ccccc4O)c3C2c2cccc(O)c2)cc1OC (configuration not stated) | active: 10.4 µM | 
66 | COc1ccc(COc2ccc3c(C)cc(=O)oc3c2)cc1 |  | inactive: 210%
67 | N#Cc1ccc(-n2c(-c3ccccc3)nnc2-c2ccccc2)cc1C#N | inconclusive [inhibitor, single point] | 
